# Data from PubChem BioAssay AID588855 (National Center for Advancing Translational Sciences (NCATS), 2011).
# The whole screen tested about 410,000 compounds, of which about 5,000 (1.2%) were called active. The inconclusive results got no clear call from the source; some entries with a clear call stand among them for comparison. Calls come from the whole dose curve; as a rule, active = well fitted inhibition curve with a large enough effect; inconclusive = small, poorly fitted or top-dose-only effect; inactive = no such curve, though single readings can be large or run the other way. Potencies beside an inconclusive call are fits to weak or partial responses and may not hold up.
# Experiment: qHTS for Inhibitors of TGF-b; note: nearly all actives have a fitted effect of over 65% in size
# Conditions: HepG2 CAGA-GFP TGF-b/SMAD3 reporter, GFP fluorescence, 18 h, TGF-beta stimulated, 500 pg/mL final; series mostly up to 46.1 µM; activity, negative = inhibition: at the top concentration
# Outline: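 HEPG2 CAGA-GFP reporter cells (1000/well, DMEM with 1% FBS) received compounds, then recombinant TGF-beta at 500 pg/mL final for 18 hours at 37 degrees C. Per-cell GFP summed per well was normalised to unstimulated and stimulated DMSO controls before curve fitting.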
# % is set by controls: 0 for no effect and ±100 for the full control effect; potency is the fitted concentration of half-maximal effect; tags give direction and shape of the fitted curve.
SMILES,Potency,"activity, negative = inhibition"
CCc1nc(SC)ncc1C(=O)N1CCN(c2cc(Cl)ccc2C)CC1,"inconclusive: 28.2 µM [inhibitor, single point]",
Cc1ccc(NC(=O)C2(NC(=O)c3cccc(N4C(=O)CSC4c4ccccc4)c3)CCCCC2)cc1 (centres undefined),,inactive: 2.78%
O=C(COc1ccccc1)N(Cc1cccnc1)c1nc2c(F)cccc2s1,"inconclusive: 0.1 µM [inhibitor, full curve, poor fit]",
O=C(c1ccc(S(=O)(=O)N2CCOCC2)cc1)N1CCOCC1,,inactive: 3.57%
O=C(Nc1ccc(-c2nc3cc(NC(=O)c4ccc(F)cc4)ccc3o2)cc1)c1ccc(F)cc1,,inactive: -1.32%
CC(C)(C)C(=O)[C@@H]1[C@@H]2C(=O)N(C3CCCCC3)C(=O)[C@@H]2[C@H]2c3ccccc3C=CN12,"inconclusive: 20 µM [inhibitor, single point]",
CC(C)[C@H](NC(=O)NC1CCN(Cc2ccccc2)CC1)C(=O)O,,inactive: -15.2%
COc1ccc(NC(=S)Nc2cc(-c3ccccc3)[nH]n2)cc1Cl,"inconclusive: 12.6 µM [inhibitor, single point]",
CC(=O)N1CCc2c(sc3nc(SCC(C)C)n(-c4ccc(C)c(Cl)c4)c(=O)c23)C1,"inconclusive: 15.8 µM [inhibitor, single point]",
CCOC(=O)N1CCN(S(=O)(=O)c2ccc(C(=O)NNc3nc4cc(C)cc(C)c4s3)cc2)CC1,"inconclusive: 35.5 µM [inhibitor, single point]",
CN1CCN(c2ccc(CNC(=O)C3Cc4c(-c5ccc6c(c5)OCO6)ccnc4O3)cc2)CC1 (centres undefined),,inactive: 6.68%
COCCCNC(=O)C[C@H]1C[C@H](C(=O)N(C(C)C)C(C)C)[C@@]2(C)c3[nH]c4ccc(Cl)cc4c3CCN2C1=O,"inconclusive: 5.01 µM [inhibitor, full curve, poor fit]",
O=C(Nc1cccc(NC(=O)c2ccc([N+](=O)[O-])o2)c1)c1ccco1,active: 3.98 µM,
Cc1ccc2nc(NC(=O)C3CCN(S(=O)(=O)c4cccc5nsnc45)CC3)sc2c1,"inconclusive: 22.4 µM [inhibitor, single point]",
O=c1cc2c(nn1Cc1ccc(Cl)cc1Cl)-c1ccccc1CC2,"inconclusive: 35.5 µM [inhibitor, single point]",
CC/C(=N\Nc1ccc([N+](=O)[O-])cc1)c1ccccc1,"inconclusive: 35.5 µM [inhibitor, single point]",
CCOC(=O)C1CCN(Cc2nc3ccc(Cl)cc3n2CCO)CC1,,inactive: -6.32%
CCSc1nnc(NC(=O)CSc2nnc(C)c(=O)n2N)s1,"inconclusive: 0.316 µM [inhibitor, full curve, poor fit]",
Cc1ccc(S(=O)(=O)NNC(=O)c2cccs2)c(C)c1,,inactive: -4.7%
CCN(c1cccc(C(F)(F)F)c1)S(=O)(=O)c1ccc2c(c1)CCN2C(=O)C1CC1,"inconclusive: 0.501 µM [inhibitor, partial curve, poor fit]",
CC(C)Oc1ccc(CNC(=O)c2ccc(CS(=O)c3cccc(Cl)c3)o2)cc1 (centres undefined),,inactive: -21.1%
COc1cccc(-n2cc(C(=O)Nc3cccc(C(F)(F)F)c3)c3ccccc3c2=O)c1,"inconclusive: 6.31 µM [inhibitor, full curve, poor fit]",

SMILES,Potency,"activity, negative = inhibition"
COc1ccc(C(=O)NC2CCCN(Cc3ccccc3F)C2)c(OC)c1OC (centres undefined),"inconclusive: 35.5 µM [inhibitor, single point]",
O=C(CN1C(=O)c2ccccc2C1=O)Nc1cccnc1,"inconclusive: 10 µM [inhibitor, partial curve, poor fit]",
CCC1CN(C(=O)N2CCC(C(=O)NCCc3cc(OC)ccc3OC)CC2)c2ccccc2O1 (centres undefined),"inconclusive: 0.282 µM [inhibitor, full curve, poor fit]",
COc1ccc(C(CCN(Cc2ccc(OC)c(OC)c2)C(=O)CCl)c2ccccc2)cc1 (centres undefined),active: 14.1 µM,
CCN(CC)S(=O)(=O)c1ccc2c(c1)N(CC(=O)N1CCN(c3cccc(Cl)c3)CC1)C(=O)CO2,"inconclusive: 35.5 µM [inhibitor, single point]",
COc1ccccc1CNc1nc(NCc2ccc(C)cc2C)c2sccc2n1,"inconclusive: 22.4 µM [inhibitor, single point]",
CCOC(=O)C1CCC(CN(Cc2ccc(OC)cc2)S(=O)(=O)c2ccc(F)c(C(=O)Nc3ccc(C)c(C)c3)c2)CC1 (centres undefined),"inconclusive: 3.16 µM [inhibitor, partial curve, poor fit]",
FC(F)(F)c1nnc(-c2ccccc2)nc1Sc1ccccc1,"inconclusive: 35.5 µM [inhibitor, single point]",
CCc1ccc(NS(=O)(=O)c2ccc3oc(=O)c4ncn(CC)c4c3c2)cc1,"inconclusive: 17.8 µM [inhibitor, single point]",
Cc1ccc(/C=N/NC(=O)c2csc(C)c2)o1,,inactive: -6.32%
COc1ccc(-n2c(Cc3ccccc3)nnc2SCc2nc(-c3cccs3)no2)cc1,"inconclusive: 10 µM [inhibitor, partial curve, poor fit]",
CCN(CC)C(=O)[C@H]1CC(CC(=O)NCc2ccc(OC)c(OC)c2)C(=O)N2CCc3c([nH]c4ccccc34)[C@]12C (some centres undefined),,inactive: -18%
O=C(COc1ccc(C(=O)NCCN2CCOCC2)cc1)Nc1cccc(C(F)(F)F)c1,,inactive: 0.731%
NS(=O)(=O)c1ccc(NC(=O)COC(=O)c2ccc([N+](=O)[O-])s2)cc1,"inconclusive: 15.8 µM [inhibitor, single point]",
CC(=O)c1c(C)[nH]c(C(=O)OCC(=O)NCCCc2ccccc2)c1C,"inconclusive: 35.5 µM [inhibitor, single point]",
Cc1nn2c(-c3ccc(S(=O)(=O)N4CCN(CCO)CC4)o3)nnc2c2ccccc12,,inactive: -1.47%
Cc1ccccc1-c1cc(C(=O)NCC2CC2)nn1CC1CC(c2cccc([N+](=O)[O-])c2)=NO1 (centres undefined),"inconclusive: 12.6 µM [inhibitor, single point]",
CCn1c(SCc2ccccc2C)nc(=O)c2c(C(=O)OC)cc(C3CC3)nc21,"inconclusive: 35.5 µM [inhibitor, partial curve, poor fit]",
Cc1ccc2c(c1)c1c(c(=O)n(-c3cccc(Cl)c3)c(=O)n1CC(=O)NCCC1=CCCCC1)n2C,,inactive: -4.68%
CN(CC(=O)NCc1ccc(Cl)cc1)S(=O)(=O)c1ccc2[nH]c3c(c2c1)CCCC3,"inconclusive: 35.5 µM [inhibitor, single point]",
COc1ccc(NC(=O)Nc2cccc3c2O[C@H](CN(C)C(=O)Nc2ccc4c(c2)OCO4)[C@@H](C)CN([C@H](C)CO)C3=O)cc1,"inconclusive: 14.1 µM [inhibitor, single point]",
Cc1ccc2nc(NC(=O)C3CCN(S(=O)(=O)c4ccc5c(c4)oc(=O)n5C)CC3)sc2c1,"inconclusive: 14.1 µM [inhibitor, single point]",

SMILES,Potency,"activity, negative = inhibition"
OCCCn1c(CCNc2nc(-c3ccc(Cl)cc3)cs2)nc2cc(C(F)(F)F)ccc21,"inconclusive: 0.126 µM [inhibitor, full curve, poor fit]",
COc1ccc(NC(=O)CCS(=O)(=O)c2nc(-c3cccs3)cc(C(F)(F)F)n2)cc1,active: 10 µM,
Cc1ccc(NC(=S)NCCc2c[nH]c3ccccc23)cc1,"inconclusive: 12.6 µM [inhibitor, partial curve]",
Cn1c(COc2ccccc2)nnc1SCc1cc(=O)[nH]c2ccccc12,"inconclusive: 35.5 µM [inhibitor, single point]",
O=C(Nc1ccccc1-c1nnc(SCc2ccccc2)o1)c1ccccc1,,inactive: -0.28%
CC(C)CC1(C(=O)NCc2cc(F)cc(C(F)(F)F)c2)C=CCN1C(=O)c1ccccc1 (centres undefined),"inconclusive: 35.5 µM [inhibitor, single point]",
Cc1ccc(NC(=O)C2CCC(C(C)(C)C)CC2)cc1S(=O)(=O)N1CCOCC1 (centres undefined),"inconclusive: 22.4 µM [inhibitor, single point]",
CN(NS(=O)(=O)c1ccc(Br)cc1)c1nc(C(F)(F)F)nc2ccccc12,"inconclusive: 35.5 µM [inhibitor, single point]",
Cc1ccc(C(=O)NCC(=O)Nc2ccc3c(c2)CCC3)cc1C,"inconclusive: 12.6 µM [inhibitor, partial curve]",
Cc1ccc(CN2C(=O)NC(Cc3c[nH]c4ccccc34)C2=O)cc1 (centres undefined),,inactive: 2.5%
COc1ccccc1OCCCOc1ccc(/C=C2\SC(=O)NC2=O)cc1OC,,inactive: 14.5%
N#Cc1ccc(S(=O)(=O)N2CCC(Oc3cccc(C(F)(F)F)c3)CC2)cc1,"inconclusive: 6.31 µM [inhibitor, single point]",
COCc1ccc(-c2c(-c3ccsc3)oc(=O)c3cc(OC)c(OC)cc23)cc1,,inactive: 2.11%
O=C1c2ccccc2CSc2c(O)cccc21,,inactive: -6.62%
CCOc1ccc(S(=O)(=O)NC2CCCC2)cc1C,,inactive: -17.1%
N#Cc1c(-c2cccs2)cc(-c2cccnc2)nc1N,"inconclusive: 11.2 µM [inhibitor, partial curve]",
COC(=O)c1cc(Br)c(=O)n(-c2cc(C)on2)c1,"inconclusive: 6.31 µM [inhibitor, single point]",
Cc1ccc(NC(=O)CN2C(=O)N/C(=C\c3cccn3-c3cccc(C(=O)O)c3)C2=O)cc1,,inactive: -8.18%
CCN(c1ccccc1)S(=O)(=O)c1cc(Br)cc2c1N(C(=O)C1CC1)CC2,"inconclusive: 20 µM [inhibitor, single point]",
Cc1ccc(C(=O)N2CCc3cc(CNC(=O)CSc4ccccc4)ccc32)cc1,"inconclusive: 12.6 µM [inhibitor, partial curve]",
